The antibiotic and cytotoxicity screens of Wong et al. (2023)
The other results are listed elsewhere or left out.

system: HepG2; test: cytotoxicity call (relative viability < 0.9); details: 10 µM

| SMILES | cytotoxicity call |
| --- | --- |
| O=C(Nc1ccc2c(c1)[C@@H]1C[C@H](CC(=O)N3CCc4ccccc4C3)O[C@@H](CO)[C@@H]1O2)C1CCOCC1 | inactive |
| COCC(=O)N(C)C[C@H]1Oc2cc(C#C[C@H](C)O)ccc2S(=O)(=O)N([C@@H](C)CO)C[C@@H]1C | inactive |
| OCC(CO)NC1CC(O)(CO)C(O)C(O)C1O (stereo not given) | inactive |
| C[C@@H]1CCCCO[C@@H](CN(C)C)[C@@H](C)CN([C@H](C)CO)C(=O)c2cc(NC(=O)Nc3ccc(C(F)(F)F)cc3)ccc2O1 | active |
| Cc1noc(C)c1S(=O)(=O)Nc1cccc2c1O[C@@H](CN(C)S(=O)(=O)c1ccc(F)cc1)[C@@H](C)CN([C@@H](C)CO)C2=O | inactive |
| C[C@@H]1CN([C@@H](C)CO)C(=O)c2cc(NC(=O)Cc3cn(C)c4ccccc34)ccc2O[C@H]1CN(C)Cc1ccc(C(F)(F)F)cc1 | inactive |
| C[C@H]1CN([C@@H](C)CO)C(=O)c2cccc(NC(=O)C3CCOCC3)c2O[C@H]1CN(C)C(=O)Nc1ccccc1 | inactive |
| Cc1ccc(S(=O)(=O)Nc2ccc3c(c2)CC(=O)N([C@@H](C)CO)C[C@@H](C)[C@H](CN(C)C(=O)Nc2cccc4ccccc24)O3)cc1 | inactive |
| C=CCOC(=O)N(C)C[C@@H]1OCCCC[C@H](C)Oc2ccc(NC(=O)Nc3ccccc3)cc2C(=O)N([C@@H](C)CO)C[C@H]1C | inactive |
| Cc1noc(C)c1S(=O)(=O)Nc1ccc2c(c1)C(=O)N([C@@H](C)CO)C[C@@H](C)[C@@H](CN(C)C(=O)Nc1ccc3c(c1)OCO3)O2 | inactive |
| COc1ccc(S(=O)(=O)Nc2cccc3c2O[C@H](CN(C)S(=O)(=O)c2cn(C)cn2)[C@H](C)CN([C@H](C)CO)C3=O)cc1 | inactive |
| C[C@H](CO)N1C[C@H](C)[C@H](CN(C)C(=O)Nc2ccc(C(F)(F)F)cc2)Oc2ccc(NC(=O)Nc3ccccc3)cc2C1=O | inactive |
| Cc1ccc(-c2ccc(OC(=O)c3ccccc3F)cc2)cc1 | inactive |
| C[C@H]1CN([C@@H](C)CO)C(=O)c2cc(NC(=O)Cn3cnnn3)ccc2O[C@H]1CN(C)CC1CC1 | inactive |
| Cc1noc(C)c1S(=O)(=O)Nc1ccc2c(c1)C(=O)N([C@@H](C)CO)C[C@H](C)[C@@H](CN(C)CC1CCCCC1)OCCCC[C@@H](C)O2 | inactive |
| CC(C)NC(=O)Nc1ccc2c(c1)C(=O)N([C@@H](C)CO)C[C@@H](C)[C@H](CN(C)CC1CCCCC1)OCCCC[C@@H](C)O2 | inactive |
| C[C@H]1CN([C@@H](C)CO)C(=O)Cc2cc(NC(=O)Cn3cnnn3)ccc2O[C@@H]1CN(C)Cc1ccc(C(=O)Nc2ccccc2N)cc1 | inactive |
| COc1ccc(CCNS(=O)(=O)c2cn(C)c(=O)n(C)c2=O)cc1 | inactive |
| C[C@@H]1CCCCO[C@H](CN(C)C(=O)Nc2cccc3ccccc23)[C@@H](C)CN([C@@H](C)CO)C(=O)c2cc(NC(=O)CCC(F)(F)F)ccc2O1 | inactive |
| Cc1ccc(S(=O)(=O)N(C)C[C@@H]2Oc3ccc(NS(C)(=O)=O)cc3CC(=O)N([C@H](C)CO)C[C@@H]2C)cc1 | inactive |

| SMILES | cytotoxicity call |
| --- | --- |
| COc1ccc(CN(C)C[C@@H]2Oc3c(NC(=O)c4ccc(-c5nccs5)cc4)cccc3C(=O)N([C@H](C)CO)C[C@H]2C)cc1 | active |
| OC1(Cn2ccnc2)CCNCC1 | inactive |
| Cc1ccc(S(=O)(=O)Nc2ccc3c(c2)C(=O)N([C@@H](C)CO)C[C@@H](C)[C@@H](CN(C)Cc2ccc(C(F)(F)F)cc2)O3)cc1 | inactive |
| C[C@@H]1CN([C@@H](C)CO)C(=O)Cc2cc(NC(=O)Nc3ccc4c(c3)OCO4)ccc2O[C@@H]1CN(C)S(=O)(=O)c1cn(C)cn1 | inactive |
| C[C@H]1CCCCO[C@@H](CN(C)S(=O)(=O)c2ccc(Cl)cc2)[C@@H](C)CN([C@@H](C)CO)C(=O)c2cc(NC(=O)NC3CCCCC3)ccc2O1 | active |
| C[C@H](CO)N1C[C@H](C)[C@H](CN(C)Cc2ccccc2)Oc2c(NC(=O)c3ccc(-c4nccs4)cc3)cccc2C1=O | inactive |
| C[C@@H]1CN([C@@H](C)CO)C(=O)c2c(c3ccccc3n2C)-c2ccccc2CO[C@@H]1CN(C)C(=O)Nc1ccc2c(c1)OCO2 | inactive |
| C[C@H]1CN([C@@H](C)CO)C(=O)c2cccc(NC(=O)C3CCCCC3)c2O[C@@H]1CN(C)Cc1ccc(Oc2ccccc2)cc1 | inactive |
| C=CC[C@@H](CC(=O)N(CCO)Cc1ccccc1)C(=O)N[C@@H](COC(=O)[C@@H](CC=C)Cc1ccc(F)cc1)Cc1c[nH]c2ccccc12 | inactive |
| Cc1nnn(C23C[C@@H]4C[C@@H](CC(NC(=O)[C@H](N)CC(C)C)(C4)C2)C3)n1 | inactive |
| CN1CCN(C(=O)[C@@H]2[C@@H](CO)[C@@H]3Cn4c(cccc4=O)[C@H]2N3S(=O)(=O)c2ccccc2F)CC1 | inactive |
| C[C@@H]1CCCCO[C@@H](CN(C)C)[C@H](C)CN([C@@H](C)CO)C(=O)c2cc(NC(=O)CCCN(C)C)ccc2O1 | inactive |
| C[C@H]1CN([C@@H](C)CO)C(=O)c2cccc(NC(=O)C3CC3)c2O[C@H]1CN(C)S(=O)(=O)c1cccs1 | inactive |
| C[C@H](CO)N1C[C@H](C)[C@H](CN(C)Cc2ccncc2)OCCCC[C@H](C)Oc2ccc(NC(=O)Nc3cccc4ccccc34)cc2C1=O | inactive |
| CC(C)NC(=O)N(C)C[C@@H]1Oc2ccc(NC(=O)Nc3ccc4c(c3)OCO4)cc2CC(=O)N([C@@H](C)CO)C[C@@H]1C | inactive |
| C[C@H]1CN([C@@H](C)CO)S(=O)(=O)c2ccc(C#CCN(C)C)cc2O[C@H]1CN(C)C(=O)C1CCCCC1 | inactive |
| C[C@H](CO)N1C[C@H](C)[C@@H](CN(C)Cc2ccc(F)cc2)Oc2cc(C#CC(C)(C)O)ccc2S1(=O)=O | inactive |
| C[n+]1ccc(CCCO)cc1 | inactive |
| COc1ccc(NC(=O)Nc2ccc3c(c2)[C@H]2C[C@H](CC(=O)NCC(F)(F)F)O[C@@H](CO)[C@H]2O3)cc1 | inactive |
| COC1C=CC23c4cc5c(cc4CN(CC2O)C3C1)OCO5 (stereo not given) | inactive |
